Measured values as given in PubChem BioAssay AID651820 (National Center for Advancing Translational Sciences (NCATS), 2012).
Among all 340,000 compounds or so, about 12,000 (3.5%) were called active. Inconclusive results, whose numbers are uncertain, are shown with a selection of clear calls. Calls come from the whole dose curve; as a rule, active = well fitted inhibition curve with a large enough effect; inconclusive = small, poorly fitted or top-dose-only effect, or another doubt; inactive = no such curve, though single readings can be large or run the other way. No potency is given beside an inconclusive call; the fits are too rough.

Assay: qHTS Assay for Inhibitors of Hepatitis C Virus (HCV)
Conditions: Huh7.5.1 HCVcc-Cre (HCVcc is cell-culture hepatitis C virus) infection, luciferase reporter, 44 h; activity change, negative = inhibition: at 41.8 µM (top of the series) unless noted
Procedure, shortened: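 HCVcc-Cre virus at an moi near 0.5 was added right after compound to cells cultured 4 h from seeding (1,000 cells/well). Luciferase activity was determined 44 h later, 15 min after substrate addition at RT.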
% is set by controls: 0 for no effect and ±100 for the full control effect; potency is the fitted concentration of half-maximal effect; tags give direction and shape of the fitted curve.

Row | Compound | Potency | activity change, negative = inhibition
1 | CN(C)c1ccc(/C=N/NC(=O)C(=O)/C=C2\NC3(CCCC3)Cc3ccccc32)cc1 | inconclusive [inhibitor, full curve] | 
2 | CCC(=O)Nc1cccc(-c2ccc(N3CCC(C)CC3)nn2)c1 |  | inactive: -5.1%
3 | Cc1cc(O)c(-c2cc(C(=O)Nc3sc4c(c3C(=O)NCc3ccco3)CCC4)[nH]n2)cc1C | inconclusive [inhibitor, partial curve] | 
4 | CCN(CC)c1ccc(NC(=S)NCC2CCCO2)cc1 (configuration not stated) |  | inactive: -6.21%
5 | COc1ccc2c(c1)O[C@@]1(CCCC[C@@H]1C)CC2=O |  | inactive: -1.75%
6 | CN(Cc1nc(-c2ccccn2)no1)S(=O)(=O)c1ccc(Cl)cc1 |  | inactive: 5.3%
7 | O=C(C(Sc1ccccc1)c1ccccc1)N1CCN(c2ccccc2F)CC1 (configuration not stated) | inconclusive [inhibitor, single point] | 
8 | Cc1nn(-c2ccccc2)c(C)c1C(=O)Oc1ccccc1 |  | inactive: 1.36%
9 | CCOC(=O)c1sc2nc(C)nc(N3CCCCC3C)c2c1C (configuration not stated) |  | inactive: -29.2%
10 | CCCn1c(=O)c(C(=O)Nc2ncccc2C)c(O)c2ccccc21 | inconclusive [inhibitor, single point] | 
11 | OC(CNCCc1ccc(Cl)cc1)COc1ccc2ccccc2c1 (configuration not stated) | inconclusive [inhibitor, single point] | 
12 | Cc1cc(C)n(/N=C/c2ccccc2)c(=O)c1C#N |  | inactive: 0.103%
13 | COC(=O)NC(=C(Cl)Cl)S(=O)(=O)c1ccccc1 | active: 11.2 µM | 
14 | COc1ccccc1N1CCN(CCCCOc2ccc(F)cc2)CC1 | inconclusive [inhibitor, partial curve] | 
15 | Cc1cc2oc(=O)cc(CSc3nnc(-c4cccs4)o3)c2cc1C(C)C | active: 10 µM | 
16 | CC12CCC(=O)N1C(C(=O)Nc1cc(S(=O)(=O)N3CCCCCC3)ccc1OCC(F)(F)F)CS2 (configuration not stated) | inconclusive [inhibitor, single point] | 
17 | COC(=O)N/N=C/c1cc(Cl)c(OCc2ccccc2F)c(OC)c1 | inconclusive [inhibitor, single point] | 
18 | Cc1cc(C(=O)Oc2ccccc2C(=O)O)c(C)o1 |  | inactive: 4.77%
19 | COc1ccc(N=C2SC(CC(=O)Nc3ccccc3OC)C(=O)N2Cc2ccco2)cc1 (configuration not stated) | inconclusive [inhibitor, single point] | 
20 | NC(=S)N/N=C/c1ncc(C(F)(F)F)cc1Cl | active: 5.62 µM | 
21 | COc1cc2c(cc1OC)C(c1ccccc1)N(S(C)(=O)=O)CC2 (configuration not stated) |  | inactive: 19.6%
22 | CCOc1ccccc1N(C(=O)c1snc(C(N)=O)c1N)C(C(=O)NC1CCCC1)c1ccco1 (configuration not stated) |  | inactive: -15.6%
23 | C=CCNc1nc(N2CCCC2)nc2ccccc12 | active: 15.8 µM | 
24 | O=C(CN1CCCc2ccccc21)NCCc1ccc(Cl)cc1 |  | inactive: 12.2%
25 | COc1ccc(-c2cc(C(=O)NNC(=O)c3csc(N4CCOCC4)n3)c3ccccc3n2)cc1 | inconclusive [inhibitor, partial curve, poor fit] | 
26 | OCC[n+]1c2ccccc2nc2ccc(N3CCOCC3)cc21 |  | inactive: 0.94%

Row | Compound | Potency | activity change, negative = inhibition
27 | CCc1ccccc1N(C(=O)c1snc(C(N)=O)c1N)C(C(=O)NCC1CCCO1)c1ccc(OC)c(OC)c1 (configuration not stated) |  | inactive: -19.8%
28 | COc1cc(Cl)c(C)cc1NC(=O)CSc1ccc(NC(C)=O)cc1 | inconclusive [inhibitor, full curve] | 
29 | CCCNS(=O)(=O)c1ccc(CCC(=O)N2CCN(c3ccc(F)cc3)CC2)cc1 | inconclusive [inhibitor, full curve, poor fit] | 
30 | CC(NC(=O)CCCCCCN1C(=O)c2ccccc2C1=O)c1ccc2c(c1)CCCC2 (configuration not stated) | inconclusive [inhibitor, full curve] | 
31 | Cc1nnc(SCC(=O)NC(C)(C)C)n1C1CCCCC1 |  | inactive: 16.8%
32 | Cc1cccc(CNCCc2c[nH]c3ccccc23)c1 | inconclusive [inhibitor, single point] | 
33 | Cc1ccc(C(=O)Nc2ccc3c(c2)OCCO3)cc1 |  | inactive: 0.424%
34 | Cc1ccc(NC(=O)CSc2ccc(-c3ccccn3)nn2)cc1 | inconclusive [inhibitor, single point] | 
35 | CCCC(C)NC(=O)c1ccccc1SC (configuration not stated) |  | inactive: 3.18%
36 | Cc1ccc(SC2=C(C(=O)O)CCCC2)cc1 |  | inactive: 32%
37 | C/C=C(\CS(=O)(=O)c1ccccc1)S(=O)(=O)c1ccccc1 | inconclusive [inhibitor, partial curve] | 
38 | CC(=O)/C(=N\Nc1ccccc1)Sc1cccc2cccnc12 | inconclusive [inhibitor, partial curve] | 
39 | COCC(C)n1c(C)cc(C(=O)COC(=O)c2c(NC(C)=O)sc(C)c2C)c1C (configuration not stated) | inconclusive [inhibitor, partial curve] | 
40 | CCC(CO)Oc1cc(NCc2ccc(C)c(C)c2)c2ncn(C(C)C)c2c1 (configuration not stated) | inconclusive [inhibitor, partial curve, poor fit] | 
41 | CCc1cccc(NC(=O)C2CCCN(S(=O)(=O)c3c(C)[nH]c(=O)[nH]c3=O)C2)c1 (configuration not stated) |  | inactive: 20.7%
42 | CC(Oc1cccnc1[N+](=O)[O-])C(=O)N1CCc2ccccc21 (configuration not stated) |  | inactive: -13.4%
43 | O=C(CSc1nc2nc3c(cc2c(=O)n1-c1ccccc1)CCCC3)Nc1cccc2ccccc12 | inconclusive [inhibitor, partial curve] | 
44 | O=C(COc1ccc(Br)cc1)NCCN1CCCC1 |  | inactive: 1.96%
45 | Cc1nc2cc(NC(=O)c3ccc(S(=O)(=O)N(C)c4ccccc4)cc3)ccc2o1 | active: 6.31 µM | 
46 | COC(=O)c1ccc(NC(=O)Nc2ccc(C)cc2)cc1 | inconclusive [inhibitor, partial curve] | 
47 | CC1=NN(c2ccc(C(F)(F)F)cn2)C(=O)C1 | inconclusive [inhibitor, single point] | 
48 | O=C(NC1CCCCC1)C(c1ccc2ncccc2c1)N(Cc1ccc(F)cc1)C(=O)c1cccs1 (configuration not stated) | inconclusive [inhibitor, single point] | 
49 | COCC(C)n1c(C)cc(C(=O)CN2C(=O)NC(Cc3c[nH]c4ccccc34)C2=O)c1C (configuration not stated) |  | inactive: -13.9%
50 | CCOc1ccccc1-c1ccc(C(=O)NCc2ccccc2)o1 | active: 14.1 µM | 
51 | Cc1ccc(C)c(N2CCN(C(=O)CCCOc3cc(=O)n(C)c4ccccc34)CC2)c1 | active: 10 µM | 
52 | CCOC(=O)c1sc(NC(=O)c2ccco2)nc1C | inconclusive [inhibitor, single point] | 

Row | Compound | Potency | activity change, negative = inhibition
53 | CCN(CC)c1ccc(CNc2nc3ccccc3n2C(C)C)cc1 | inconclusive [inhibitor, single point] | 
54 | CCOc1ccc(OCC)c(S(=O)(=O)NCc2ccccc2)c1 |  | inactive: 0.846%
55 | Cc1ccc(/C=C2\SC(=S)N(CCC(=O)Nc3cccnc3)C2=O)cc1 | inconclusive [inhibitor, partial curve] | 
56 | N#Cc1ccc(NC(=O)CN2C(=O)NC3(CCCCCCC3)C2=O)cc1Cl | inconclusive [inhibitor, single point] | 
57 | O=C(COC(=O)c1cn(-c2ccccc2)nc1-c1ccc(F)cc1)Nc1ncc(Cl)cc1Cl | inconclusive [inhibitor, single point] | 
58 | O=C(NCC1OCCc2ccccc21)c1cc(COc2c(F)cccc2F)on1 (configuration not stated) | inconclusive [inhibitor, single point] | 
59 | CCNC(=S)Nc1sc2c(c1C#N)CCC(C)C2 (configuration not stated) | inconclusive [inhibitor, single point] | 
60 | COc1ccc(N=Cc2c(O)c3ccccc3oc2=O)cc1 | inconclusive [inhibitor, single point] | 
61 | O=C(NNC1CC(=O)N(c2ccc(Br)cc2)C1=O)c1ccco1 (configuration not stated) |  | inactive: 5.92%
62 | CCC[C@@H]1C[C@@H](C(=O)N[C@@H](C2O[C@H](SC)[C@H](O)[C@@H](O)[C@H]2O)[C@H](C)Cl)N(C)C1 (some centres not stated) |  | inactive: -4.06%
63 | CC(C)(C)c1ccc(N/N=C(\C#N)S(=O)(=O)C(C)(C)C)cc1 | inconclusive [inhibitor, single point] | 
64 | Cc1cccc(S(=O)(=O)c2c(N)n(Cc3ccco3)c3nc4ccccc4nc23)c1 |  | inactive: -10.5%
65 | CCc1ccccc1N1CSC2=C(C#N)C(c3cc(OC)c(OC)cc3OC)CC(=O)N2C1 (configuration not stated) | inconclusive [inhibitor, single point] | 
66 | Cc1cc(SCC(=O)N/N=C/c2ccc(O)c(O)c2)c(C)cc1Br | inconclusive [inhibitor, partial curve] | 
67 | COc1ccc(C)cc1S(=O)(=O)Nc1ccc2c(c1)N(C(C)=O)CCC2 | inconclusive [inhibitor, partial curve] | 
68 | COc1cc(C(=O)Nc2c(C)cc(C)cc2C)c(Br)c(OC)c1OC |  | inactive: 0.99%
69 | Cc1ccc2oc(=O)c3cnn(CC(=O)Nc4ccccc4N4CCN(C)CC4)c3c2c1 | active: 14.1 µM | 
70 | CC1=CC(C)(C)N(C(=O)CSc2nnc(N)s2)c2ccccc21 |  | inactive: 30%
71 | COc1ccc(-n2c(-c3ccc(Br)cc3)c[n+]3c2CCc2ccccc2-3)cc1 | inconclusive [inhibitor, single point] | 
72 | CC(C)(C)NNC(=S)Nc1cccc(F)c1 |  | inconclusive: -79.6% [inhibitor]
73 | Nc1sc2c(c1C(=O)NC1CC1)CCCC2 |  | inactive: -1.93%
74 | Cc1ccc2cc(CCNS(=O)(=O)c3ccc(Cl)cc3)c(=O)[nH]c2c1C |  | inactive: -13.6%
75 | C=CCNCCOCCOc1ccc(Cl)cc1C(C)(C)C | inconclusive [inhibitor, single point] | 
76 | COc1cc(OC)c(NC(=O)c2ccc(F)cc2)cc1Cl |  | inactive: -27.8%
77 | O=C(Nc1ccc(N2CCCC2)cc1)C(Cl)c1ccccc1 (configuration not stated) | inconclusive [inhibitor, partial curve, poor fit] | 
